# Publication PMC6919601, “Identification of Plasmodium dipeptidyl aminopeptidase allosteric inhibitors by high throughput screening” (PLoS ONE, 2019)
# Out of some 110,000 compounds screened, about 230 (0.21%) showed an effect of 50% or more. This is one part of the list.
# Target: DPAP1 (Plasmodium falciparum, UniProt Q8IIJ9)
# Assay: primary screen, percent inhibition; read by cleavage of a fluorogenic dipeptide substrate; higher = more effect of the substance
# Parameters: species or system P. falciparum D10 trophozoite lysates; single well
# 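Also: 30 min substrate incubation versus DMSO and 10 µM JCP410 controls.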
# DPAP1, sequence (Q8IIJ9 whole entry, looked up): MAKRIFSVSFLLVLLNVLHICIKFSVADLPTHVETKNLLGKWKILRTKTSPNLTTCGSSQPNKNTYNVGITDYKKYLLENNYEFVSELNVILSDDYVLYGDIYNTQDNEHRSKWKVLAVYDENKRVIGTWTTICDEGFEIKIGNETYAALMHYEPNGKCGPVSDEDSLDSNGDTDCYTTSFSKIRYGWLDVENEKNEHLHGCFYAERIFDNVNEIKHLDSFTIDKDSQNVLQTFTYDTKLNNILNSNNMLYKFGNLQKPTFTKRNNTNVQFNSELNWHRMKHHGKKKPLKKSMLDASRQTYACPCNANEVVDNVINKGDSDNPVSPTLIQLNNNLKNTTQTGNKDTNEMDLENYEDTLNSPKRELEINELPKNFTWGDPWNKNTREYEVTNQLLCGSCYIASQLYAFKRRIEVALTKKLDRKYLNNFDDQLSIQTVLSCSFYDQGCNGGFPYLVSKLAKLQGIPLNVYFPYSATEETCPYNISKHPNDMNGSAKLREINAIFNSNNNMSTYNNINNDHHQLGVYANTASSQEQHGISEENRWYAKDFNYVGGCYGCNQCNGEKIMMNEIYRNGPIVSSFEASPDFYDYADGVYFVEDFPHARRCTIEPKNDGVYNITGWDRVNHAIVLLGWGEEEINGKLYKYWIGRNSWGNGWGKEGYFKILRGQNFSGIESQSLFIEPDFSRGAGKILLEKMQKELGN
row,SMILES,% Inhibition @ 10 uM [%]
1,CC(=O)c1ccc(N/C=C\C(=O)c2ccc3c(c2)OCO3)cc1,0.777
2,CC1=C(c2cccc(Br)c2)S(=O)(=O)N=C1NC(C)C12CC3CC(CC(C3)C1)C2 (stereo not drawn),0.623
3,O=C(Cn1nc(C(F)(F)F)cc1C1CC1)Nc1ccc(F)c(F)c1,0.709
4,Cc1ccc(OC(C)C(=O)Nc2cccc(C)c2)cc1 (stereo not drawn),-0.95
5,COc1ccc(Cl)cc1N(CC(=O)Nc1ccccc1)S(C)(=O)=O,2.02
6,CCCNC(=O)c1nn2c(c1Br)NC(c1cccs1)CC2C(F)(F)F (stereo not drawn),-4.16
7,O=[N+]([O-])c1ccccc1CN1CCc2ccccc2C1,4.81
8,Cc1nc2cc(Cl)ccc2n1CCO,0.467
9,CCOC(=O)c1c(C)nc2ccccn12,-6.32
10,Cc1nc2ccc(S(=O)(=O)NCC(=O)N(C)C3CCCCC3)cc2s1,-0.72
11,C=CCC1NC(C)(C)Cc2cc(OC)c(OC)cc21 (stereo not drawn),0.177
12,CCCc1nnc(NC(=O)CSc2nc(O)c(C#N)c(-c3cccc(OC)c3)n2)s1,8.36
13,COc1ccc(OC)c(CCNC(=O)c2noc3c2COc2ccccc2-3)c1,59.5
14,Cc1ccc(-c2noc(CN(C(=O)CCCN3C(=O)c4ccccc4C3=O)C3CCCCC3)n2)cc1,-2.99
15,O=C(Cn1cc2c(n1)CCCC2)NCc1cccc(Cl)c1,0.137
16,O=C(CSc1nnc(-c2ccc(Cl)s2)o1)N1CCOCC1,-1.59
17,CCN(Cc1ccccc1)C(=O)c1oc2ccc(S(=O)(=O)N3CCCCCC3)cc2c1C,-2.26
18,CN(C)C(=O)N1CCCC(C(=O)NCc2ccc(F)cc2Cl)C1 (stereo not drawn),-1.34
19,Cc1ccc(C)c(NC(=O)CSc2ncn(-c3ccccc3)n2)c1,-5.45
20,O=C(O)c1ccc(CNc2nc3ccccc3nc2NS(=O)(=O)c2ccc(Cl)cc2)cc1,-3.95
21,Cc1nc(N2CCOCC2)nc(O)c1CCOc1ccccc1,9.03

row,SMILES,% Inhibition @ 10 uM [%]
1,COc1ccc(-c2nnc(NCc3nc4ccccc4[nH]3)c3ccccc23)cc1,2.18
2,COc1ccc(C2CC(c3c(O)cc(C)oc3=O)=NCCS2)cc1O (stereo not drawn),-1.8
3,CCOc1cc(Br)c(/C=C2\SC(=O)N(CC)C2=O)cc1OCC,-7.97
4,COc1cccc(/C=C2\SC(N3CCOCC3)=NC2=O)c1OC,4.85
5,Cc1ccccc1CSc1nnc2c(n1)[nH]c1ccc(S(=O)(=O)N3CCOCC3)cc12,-3.78
6,COc1cccc(C(=O)N2CCN(Cc3ccc(Cl)cc3)CC2)c1,-1.98
7,CSc1nc2c(cc1C#N)CCC2,0.317
8,CC1CC(C)CN(CCCNC(=O)c2ccc(CSc3nc4ccncc4[nH]3)cc2)C1 (stereo not drawn),1.8
9,COc1cc(OC)c(OC)cc1CN1CCN(C2C3CC4CC(C3)CC2C4)CC1 (stereo not drawn),2.6
10,Cc1cccc(CNc2nc3nc(C)c(Cc4ccccc4)c(O)n3n2)c1,2.62
11,CC(C)CC(O)CNC(C)(C)C (stereo not drawn),1.96
12,CCc1ccc(-c2csc(-c3ccccn3)n2)cc1,5.7
13,COCCNC1CCN(Cc2ccccc2)CC1,1.57
14,Cc1ccc(-n2ncc3c(NCCCn4ccnc4)ncnc32)c(C)c1,1.58
15,CCCC[C@H](NC(=O)[C@H](CC(C)C)NC(=O)OCc1ccccc1)C(=O)c1nnc(-c2ccco2)o1,12.5
16,COCCN(CCNc1nc2ccccc2c2nc(-c3cccnc3)nn12)Cc1ccco1,0.981
17,CC(C)(C)c1ccc(C(=O)N[C@H](C(=O)NCC#N)C2CCCC2)cc1,-6.46
18,Brc1ccc2ncnc(N3CCOCC3)c2c1,-8.88
19,O=S(=O)(O)c1nc2ccccc2n1CCOc1ccccc1F,-5.4
20,CC1CN(C(=O)Cn2cc(SCC(=O)NCc3ccccc3)c3ccccc32)CC(C)O1 (stereo not drawn),-1.68
21,O=c1nc2s/c(=C\c3ccccc3)c(=O)n2nc1Cc1ccccc1,0.222

row,SMILES,% Inhibition @ 10 uM [%]
1,O=C1SC(C2SC(=O)N(Cc3ccc(F)cc3)C2=O)C(=O)N1Cc1ccc(F)cc1 (stereo not drawn),5.21
2,CCN(CC)S(=O)(=O)c1ccc(N/C=C2/C(=O)NC(=O)N(c3cccc(Cl)c3)C2=O)cc1,4.67
3,CC(C(=O)N1CC2(C)CC1CC(C)(C)C2)N1C(=O)c2ccccc2C1=O (stereo not drawn),-3.09
4,Cc1ccc2occ(/C=C/C(=O)c3cc4ccc5ccccc5c4oc3=O)c(=O)c2c1,2.95
5,CCOC(=O)c1c(NC(=O)COCc2cc(-c3ccc(F)cc3)on2)sc2c1CCCC2,-3.81
6,CCN1CCN(C(CNC(=O)c2cccs2)c2cccnc2)CC1 (stereo not drawn),-1.72
7,CCOc1ccc(C(=O)Nc2ccccn2)cc1Br,6.11
8,CCCC[C@H](NC(=O)C(CC(C)c1ccccc1)NC(=O)c1ccc(-c2ccccc2Cl)cc1)C(=O)CC(=O)N1CCCC1 (stereo partly drawn),-1.82
9,CC(C)CNC(=O)CSc1nc(-c2ccccc2)cc(C(F)(F)F)n1,-1.72
10,Nc1n[nH]c(CNC(=O)c2ccccc2)n1,4.4
11,COc1ccc2c(CNCCC3=CCCCC3)c(C(=O)O)n(Cc3ccccc3C)c2c1,2.54
12,COc1ccc(OC)c(/C=C2/N=C(c3cccc4ccccc34)OC2=O)c1,-6.62
13,CCc1nnc(NC(=O)C2CCCN(C(=O)c3cnn(-c4ccccc4)c3-n3cccc3)C2)s1 (stereo not drawn),-0.281
14,Cc1ccc(C)c(OCCNS(=O)(=O)c2cccc(C(F)(F)F)c2)c1,2.99
15,COc1ccc(CN2C(=O)c3ccc(F)cc3C2=O)cc1,-2.12
16,N#CCCN(CC1COc2ccccc2O1)C(=O)c1ccccc1 (stereo not drawn),-0.641
17,COc1ccc(NC(=O)CCc2ccccc2)cc1NC(=O)c1ccco1,9.5
18,COc1cc(C=C2C(=O)OC(C)(C)OC2=O)ccc1OCc1ccccc1,-9.32
19,CCOc1ccccc1C(=O)NCc1ccco1,-5.82
20,Cc1ccc2c(c1)c1c(c(=O)n(Cc3ccccc3)c(=O)n1CC(=O)NCc1ccccc1)n2C,1.44
21,COc1ccc(-c2cc(C)no2)cc1S(=O)(=O)NC1CCN(Cc2ccccc2)CC1,-0.615
